Assay results from PMC12434519 (ACS Medicinal Chemistry Letters, 2025).

Target: SARS-CoV-2 NSP14 (Severe acute respiratory syndrome coronavirus 2, UniProt P0DTD1)
Test: biochemical
[1] = LUM % inhibition, read-out: SARS-CoV-2 NSP14 inhibition: IC50
[2] = LUM % inhibition, read-out: SARS-CoV-2 NSP14 inhibition: Maximum response
[3] = fit of concentration-response curve
[4] = Hill slope of the concentration-response fit
[5] = maximum response, LUM % inhibition, read-out: SARS-CoV-2 NSP14 inhibition: Maximum response (%)
[6] = read-out: SARS-CoV-2 NSP14 inhibition: IC50
[7] = TDI-015051 series, retrospective VS set, biochemical MTase assay, read-out: Merged IC50
[8] = Merged IC50 (µM), TDI-015051 series, retrospective VS set, biochemical MTase assay

SMILES | IC50 [1] | Emax [2] | SARS-CoV-2 NSP14 inhibition: Hill slope [3] | further results
Cc1cc(C(=O)N2CCC3(CC(NC(=O)c4c(F)cccc4F)CO3)C2)cc2cn[nH]c12 (stereo not shown) [RU-0834091] | > 125 µM | 10.2% | 18.4 | 
Cc1ccc(N(C)S(=O)(=O)c2cccc(C(=O)NC3CCOc4ccccc43)c2)cc1 (stereo not shown) [RU-0833906] | > 125 µM | 11.5% | 6.76 | 
O=C(NC[C@]1(O)C[C@H](NC(=O)c2cccc3cc(O)ccc23)C1)c1ccc(F)cc1 [RU-0833680] |  |  |  | SARS-CoV-2 NSP14 inhibition: Hill slope [4]: 0.0871; Emax [5]: 0.636%; IC50 [6]: > 62.5 µM
Cc1cc(C(=O)NC2CCC3(CC2)CC(NC(=O)c2cnn4ccn(C)c24)C3)cc2cn[nH]c12 (stereo not shown) [RU-0834152] | > 125 µM | 15.5% | 93.8 | 
CC(NC(=O)NCc1cccc(NC(=O)c2cccc(F)c2)c1)c1ccc(N2CCCC2=O)cc1 (stereo not shown) [RU-0833938] | 37.2 µM | 78.2% | 1.25 | 
Cc1cc(C(=O)NCc2ccccc2CNC(=O)c2cncc(N(C)C)n2)cc2cn[nH]c12 [RU-0834177] | > 125 µM | 20.4% | 1.45 | 
Cc1n[nH]c(C)c1CNC(=O)c1cc(S(=O)(=O)c2ccc3[nH]ncc3c2)c(C)n1C [TDI-016594, Cc1n[nH]c(C)c1CNC(=O)c1cc(S(=O)(=O)c2ccc3[nH]ncc3c2)c(C)n1C] |  |  |  | IC50 [7]: 0.0251 µM
O=C(NC1CCC2(CCN(C(=O)c3ccn4cncc4c3)C2)C1)c1ncc2ccccn12 (stereo not shown) [RU-0834083] | > 125 µM | 11.2% | 93.7 | 
Cc1cc(C(=O)NCC2(C)CCC(NC(=O)c3ncc4ccccn34)C2)cc2cn[nH]c12 (stereo not shown) [RU-0834202] | 18.7 µM | 57.6% | 0.981 | 
Cc1cc(C(=O)NCc2ccnc(C(=O)NCc3ncc(F)cc3F)c2)ccc1O [RU-0834131] | 14.2 µM | 30.3% | 1.08 | 
O=C(C1CCCC1)N1CC(S(=O)(=O)N[C@@H]2C[C@@H]2c2c(F)cccc2F)C1 [RU-0833635] |  |  |  | SARS-CoV-2 NSP14 inhibition: Hill slope [4]: 0.114; Emax [5]: 0.75%; IC50 [6]: > 62.5 µM
Cc1ccc(NS(=O)(=O)c2ccc3c(c2)OCCO3)cc1S(=O)(=O)Nc1ccc(F)cc1 [RU-0833658] |  |  |  | SARS-CoV-2 NSP14 inhibition: Hill slope [4]: 68.1; Emax [5]: 5.49%; IC50 [6]: > 62.5 µM
O=C(NCC1COc2ccccc2O1)c1cccc(S(=O)(=O)N2CCc3ccccc32)c1 (stereo not shown) [RU-0833900] | > 125 µM | 10.3% | 108 | 
Cc1ccc(S(=O)(=O)N(C)CC(=O)Nc2ccnn2Cc2ccc(Cl)cc2)cc1C [RU-0833924] | > 125 µM | 14.4% | 19.5 | 
CN(C)c1cccc(C(=O)NC2CCC(CCNC(=O)c3ccc(O)c(F)c3F)C2)c1 (stereo not shown) [RU-0834084] | > 125 µM | 17% | 788 | 
O=C(NCc1nccc2ccccc12)c1ccc(Cl)c(S(=O)(=O)N2CCCCCC2)c1 [RU-0833917] | 12 µM | 58.2% | 0.938 | 
Cc1ccc(S(=O)(=O)NC[C@H]2CCCN(C(=O)[C@H](O)c3ccccc3)C2)cc1 [RU-0833633] |  |  |  | SARS-CoV-2 NSP14 inhibition: Hill slope [4]: 1.32; Emax [5]: 6.04%; IC50 [6]: > 62.5 µM
Cc1c(CO)cccc1C(=O)NCc1cccc2c1CN(C(=O)c1cc(CCO)on1)C2 [RU-0834097] | > 125 µM | 20.2% | 1.42 | 
Cc1c(S(=O)(=O)N2CCC(C)CC2)cc(C(=O)NCc2cccnc2N2CCCC2)n1C [TDI-013598, Cc1c(S(=O)(=O)N2CCC(C)CC2)cc(C(=O)NCc2cccnc2N2CCCC2)n1C] |  |  |  | IC50 (TDI-015051 series, retrospective VS set, biochemical MTase assay, read-out: Merged pIC50 (converted)): 0.0209 µM
CN(c1ccccc1)S(=O)(=O)c1cccc(NC(=O)Cc2nn(C)c(=O)c3ccccc23)c1 [RU-0833684] |  |  |  | SARS-CoV-2 NSP14 inhibition: Hill slope [4]: 48.1; Emax [5]: -0.611%; IC50 [6]: > 62.5 µM
Cc1c(S(=O)(=O)c2ccc3[nH]ncc3c2)cc(C(=O)NCc2c(Cl)cnn2C)n1CC(F)F [TDI-016691, Cc1c(S(=O)(=O)c2ccc3[nH]ncc3c2)cc(C(=O)NCc2c(Cl)cnn2C)n1CC(F)F] |  |  |  | IC50 [8]: 0.00106 µM

SMILES | IC50 [1] | Emax [2] | SARS-CoV-2 NSP14 inhibition: Hill slope [3] | further results
O=C(NCc1nnc2ccccn12)c1ccc(Cl)c(S(=O)(=O)N[C@H]2CCCc3ccccc32)c1 [RU-0833667] |  |  |  | SARS-CoV-2 NSP14 inhibition: Hill slope [4]: 9.99; Emax [5]: 3.98%; IC50 [6]: > 62.5 µM
Cc1c(S(=O)(=O)N2CCn3nccc3C2)cc(C(=O)NCc2cccnc2N2CCCC2)n1C [TDI-013801, Cc1c(S(=O)(=O)N2CCn3nccc3C2)cc(C(=O)NCc2cccnc2N2CCCC2)n1C] |  |  |  | IC50 [7]: 0.00795 µM
COc1ccc(Oc2cc(CNC(=O)N[C@@H](C)c3c(C)nn(C)c3C)ccn2)cc1 [RU-0833687] |  |  |  | SARS-CoV-2 NSP14 inhibition: Hill slope [4]: 1.27; Emax [5]: 1.2%; IC50 [6]: > 62.5 µM
O=C(NCC1COc2ccccc2O1)c1cccc(S(=O)(=O)N2CCCCCC2)c1 (stereo not shown) [RU-0833899] | > 125 µM | 11.5% | 11.5 | 
O=C(NC1CC1)c1ccc(CNC(=O)N2CCc3cc(F)ccc32)cc1 [RU-0833941] | > 125 µM | 24.3% | 0.63 | 
O=C(CN1NC(=CCn2c(=O)oc3ccccc32)C=CC1=O)Nc1ccccc1F [RU-0833870] |  |  |  | SARS-CoV-2 NSP14 inhibition: Hill slope [4]: 208; Emax [5]: 21.7%; IC50 [6]: > 125 µM
Cc1cc(CC(=O)NC[C@H]2[C@@H](CNC(=O)c3cc(C)c(O)c(C)c3)C2(F)F)ccc1F [RU-0834164] | 18.4 µM | 51.2% | 0.895 | 
CN(Cc1ccccc1)S(=O)(=O)c1ccc(Cl)c(C(=O)NCc2nc3ccccc3n2C)c1 [RU-0833907] | > 125 µM | 13.8% | 62.9 | 
Cc1c(S(=O)(=O)c2ccc3c(cnn3C)c2)cc(C(=O)NCc2c(F)ccc3cnn(C4CC4)c23)n1CCCC#N |  |  |  | IC50 [8]: 0.00257 µM
O=C(NCc1ccc2c(c1)CN(C(=O)Cc1cccc(O)c1F)C2)c1c(F)cccc1F [RU-0834190] | 35.2 µM | 59.1% | 0.883 | 
Cn1c(CNc2cccc(C(=O)NCc3nncn3C3CC3)c2)nnc1-c1ccncn1 [RU-0833655] |  |  |  | SARS-CoV-2 NSP14 inhibition: Hill slope [4]: 34.9; Emax [5]: -1.73%; IC50 [6]: > 62.5 µM
Cc1cc(C(=O)NCc2ncc(C(=O)NCc3c(F)cccc3F)cn2)ccc1O [RU-0834132] | 23.9 µM | 34% | 0.827 | 
Cc1cc(C(=O)N2CCC3(CC2)CC3CNC(=O)c2n[nH]c3cccnc23)cc2cn[nH]c12 (stereo not shown) [RU-0834093] | > 125 µM | 40.9% | 0.617 | 
Cc1c(S(=O)(=O)N2CCn3nccc3C2)cc(C(=O)NCc2cccnc2N2CCCC2)n1CCO [TDI-014469, Cc1c(S(=O)(=O)N2CCn3nccc3C2)cc(C(=O)NCc2cccnc2N2CCCC2)n1CCO] |  |  |  | IC50 [7]: 0.0052 µM
O=C(CNC(=O)Cc1ccc(O)cc1)NCC(c1ccccc1Cl)c1c[nH]c2ccccc12 (stereo not shown) [RU-0833891] | > 125 µM | 12.1% | 20.8 | 
Cc1c(C(=O)NCc2ccc(CNC(=O)c3n[nH]c4ccccc34)cc2)ccc2cncn12 [RU-0834168] | 10.3 µM | 47.6% | 1.32 | 
COc1cccn2ncc(C(=O)NC[C@@H]3C[C@H]3CNC(=O)c3ccc(C)c(C)c3)c12 [RU-0833943] | > 125 µM | 7.75% | 2.12 | 
O=C(c1cccc(NCc2cccc(F)c2)c1)N1CCC(CO)CC1 [RU-0833937] | > 125 µM | 7.47% | 16.1 | 
Cc1cc(F)ccc1C(=O)NCC1CC2(CO1)CN(C(=O)c1cc(C)c3[nH]ncc3c1)C2 (stereo not shown) [RU-0834089] | > 125 µM | 16.6% | 1.51 | 
Cc1c(S(=O)(=O)c2ccc3[nH]ncc3c2)cc2n1CCOCCCc1ccccc1CNC2=O [TDI-016617, Cc1c(S(=O)(=O)c2ccc3[nH]ncc3c2)cc2n1CCOCCCc1ccccc1CNC2=O] |  |  |  | IC50 [7]: 0.0294 µM
COc1ccc(CC(=O)Nc2ccc(Cl)c(S(=O)(=O)Nc3ccccc3OC)c2)c(OC)c1 [RU-0833911] | > 125 µM | 25% | 1.88 | 

Read-outs that look alike come from different tables or passages of the source.
